The list shows a part of the results.

The test deals with T1, OsWOX13 (Oryza sativa, UniProt Q5QMM3 1-267).
T1 sequence: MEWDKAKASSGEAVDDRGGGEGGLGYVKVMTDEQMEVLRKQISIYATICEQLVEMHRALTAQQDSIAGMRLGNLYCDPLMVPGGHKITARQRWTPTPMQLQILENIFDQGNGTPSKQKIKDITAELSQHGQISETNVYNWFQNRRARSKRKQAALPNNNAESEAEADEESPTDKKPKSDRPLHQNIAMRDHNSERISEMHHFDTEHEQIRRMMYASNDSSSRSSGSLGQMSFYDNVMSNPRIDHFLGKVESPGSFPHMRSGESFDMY
Description: protein-binding microarray (RPBM); PBS, 2% BSA, 51.3 ng/ul salmon testes DNA, 50 uM zinc acetate, 200 nM TF, 25 C, 1 h; high values mean tight binding. The following applies: protein: recombinant; tags: N-terminal polyhistidine and DsRed monomer fusion (pET32a); label: CyDye5-dUTP incorporated in the synthesized complementary strand; 3' TTTTT single-stranded linker to array surface; dsDNA, one strand shown. The gist of the method: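 Transcription factors, each fused N-terminally to a polyhistidine tag and DsRed, were expressed in E. coli BL21-CodonPlus and purified on Ni–NTA. A custom Agilent array was made double-stranded by primer extension with Cy5-dUTP and blocked with 2% BSA. It was incubated with 200 nM protein in PBS, 2% BSA, salmon testes DNA and 50 µM zinc acetate at 25 °C for 1 h, then washed. The binding signal is per-feature fluorescence intensity (arbitrary units) read on an Axon 4000B scanner.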
For “GAAATTATATGCCTAATTAACTAACTATACTATAAACCTGCGGAGTCACCTAGTGCAG”, the binding signal is 24200 fluorescence intensity (a.u.). Then “TCTAAATTAAAATAACCTTCACCCGTTGTAACGCGCGAGCCGGAGTCACCTAGTGCAG”, with 12000 fluorescence intensity (a.u.); and “TTAACAAACGGATGTTTCCATTCCAAAATACACCAACTTTCGGAGTCACCTAGTGCAG”, with 4510 fluorescence intensity (a.u.). As for “CGGATTAATTAGGCTTAATAAATTTATCTCGCAATTTACACGGAGTCACCTAGTGCAG”, the binding signal is 44700 fluorescence intensity (a.u.). To “TGTTAATTTGATGAGTCGCTCTTCTTCATTGTAGGGTGAACGGAGTCACCTAGTGCAG” belongs 42100 fluorescence intensity (a.u.). To “TATTGTCACACTGATTGGATACAAGTCGCGGTTTGTATATCGGAGTCACCTAGTGCAG” belongs 16400 fluorescence intensity (a.u.); to “CATTTATATAATTAAACAATCAATAAAGGGAATTACACTACGGAGTCACCTAGTGCAG”, 21500 fluorescence intensity (a.u.); to “TGTAATTTATTTTGTTATTAGTCTACGTTTAATACTTGAACGGAGTCACCTAGTGCAG”, 16800 fluorescence intensity (a.u.). For “AAAGAGTGATTATGAGTCATTGTTACGAAGAATCTAGCATCGGAGTCACCTAGTGCAG”, the binding signal is 14300 fluorescence intensity (a.u.). As for “GCAGTAATTAGCTTGTGCACCTTACCTTCTGATGCAGCTCCGGAGTCACCTAGTGCAG”, the binding signal is 20000 fluorescence intensity (a.u.). Then “CCACCACCAATCACTGCCTCCGATCCGACTGGATCAGGTACGGAGTCACCTAGTGCAG”, with 13800 fluorescence intensity (a.u.).

Turning to “CACATGATGACTTGATTCCCGGTACGTTTCGTGCACAAAGCGGAGTCACCTAGTGCAG”, the binding signal is 3340 fluorescence intensity (a.u.). Then “AATTAAATTTTAACTATTAATATTATATTTTATAAATATTCGGAGTCACCTAGTGCAG”, with 6480 fluorescence intensity (a.u.); and “TAAGGATAGTCAACAAATTGAAGGAATATCTTATACATGCCGGAGTCACCTAGTGCAG”, with 3510 fluorescence intensity (a.u.); and “TATAACAAATTTGAATGTGTCATTTTCATATGCCCAAAATCGGAGTCACCTAGTGCAG”, with 4090 fluorescence intensity (a.u.).

“ATCGGACAAATTTTAGTAAGTGACGTTAACTTCTGCATTACGGAGTCACCTAGTGCAG”: the binding signal was 3980 fluorescence intensity (a.u.).

For the sequence “CATAATTGCCGGTGCGTGATGCGGGAGTTGGTTCGACCAGCGGAGTCACCTAGTGCAG”, the binding signal was 32400 fluorescence intensity (a.u.). To “TGATATAATACAATCAATCTGTAGTTTTGTGATAGTTTGACGGAGTCACCTAGTGCAG” belongs 5930 fluorescence intensity (a.u.); to “GAAATTACGATTTGTCATCGGAGAAGAGGAATTCATTGTCCGGAGTCACCTAGTGCAG”, 3470 fluorescence intensity (a.u.). To “ATATTGAATTATTGATTTGATGAAAATAATTTAGTATTATCGGAGTCACCTAGTGCAG” belongs 20500 fluorescence intensity (a.u.). Then “AAAATTAAATGCGATCAATCAGAGCCGTCCATATCTCTGCCGGAGTCACCTAGTGCAG”, with 33400 fluorescence intensity (a.u.); and “CTTCAATTACAATCCGGTGCAACACGTGTGGAATAATACACGGAGTCACCTAGTGCAG”, with 5920 fluorescence intensity (a.u.).

Turning to “AACCGTGATTGTGAAGCCTCATTCTCTTTTATGGAAGGCACGGAGTCACCTAGTGCAG”, the binding signal was 26500 fluorescence intensity (a.u.). Turning to “GTCACCAATTATCAACAGAAAAGGGTGTGTAACCTTACCACGGAGTCACCTAGTGCAG”, the binding signal is 3870 fluorescence intensity (a.u.). On to “GACTTGTTATCGTATAATTAATTAAGTACTATCGTATAATCGGAGTCACCTAGTGCAG”, for which the binding signal was 7460 fluorescence intensity (a.u.). To “AAGTGATTTTCCGGTCTGATTGCTTGACGCTAATCCAAAACGGAGTCACCTAGTGCAG” belongs 19500 fluorescence intensity (a.u.). To “TTGAAATATAAATCAAATATATATTAGAGGCATCCATAAGCGGAGTCACCTAGTGCAG” belongs 5620 fluorescence intensity (a.u.). To “GTTAGATGATAAAACATGATTAATATTTTATGTGTGACTTCGGAGTCACCTAGTGCAG” belongs 7500 fluorescence intensity (a.u.); to “TGTGTAGTCTTGTTTGATTTAATTGCAACGAATTTAATGGCGGAGTCACCTAGTGCAG”, 3470 fluorescence intensity (a.u.); to “GGCGCGCTGATTGCGAGGGAGGCCGAGAACGGCATCCATACGGAGTCACCTAGTGCAG”, 5300 fluorescence intensity (a.u.).

For the sequence “TAACAATAATTACAATGACTTATACTCACCCTATCCACAACGGAGTCACCTAGTGCAG”, the binding signal was 12300 fluorescence intensity (a.u.). To “AGCAAGATTGCAATAACTCCATAATTAATAGTGCTATCAGCGGAGTCACCTAGTGCAG” belongs 25700 fluorescence intensity (a.u.); to “AAAATAATTTAGGATACTCACAAGAAAATAAACGATCGTCCGGAGTCACCTAGTGCAG”, 5740 fluorescence intensity (a.u.). Then “GTGTAAATTAGACCATTTTATAGATATCTTGTAGCAAATTCGGAGTCACCTAGTGCAG”, with 5520 fluorescence intensity (a.u.). As to “GTATTTGTGTGATTGATTTTAAGTTAGAACACAGTGATGACGGAGTCACCTAGTGCAG”, the binding signal was 33400 fluorescence intensity (a.u.). To “ACGTGTTGATTATGCTAAGCAATTAGAGATTACGTATTGACGGAGTCACCTAGTGCAG” belongs 13800 fluorescence intensity (a.u.); to “TTAATTAACAGGCCAAGTTTTCACTACCCAATAAACAAGGCGGAGTCACCTAGTGCAG”, 12300 fluorescence intensity (a.u.); to “GCTTGATGGATTGGGTAGTGGCCGAGGCCGATGGCTCTCCCGGAGTCACCTAGTGCAG”, 27800 fluorescence intensity (a.u.). For “TGTTTTACCCTGATTGCGTGAAGTGAAACTATTATTCAGGCGGAGTCACCTAGTGCAG”, the binding signal is 3550 fluorescence intensity (a.u.). Then “CAAATTCTGATTGCAGAGCCAGAAGAGCCAGTCGCATTGTCGGAGTCACCTAGTGCAG”, with 16200 fluorescence intensity (a.u.). As to “AACTTAATTATATAGTTTAACATCATCATATTTATATTTGCGGAGTCACCTAGTGCAG”, the binding signal is 25700 fluorescence intensity (a.u.). To “AATAAAATTGACGTTCTCCATTTTGGAAAGGAGGGACTAACGGAGTCACCTAGTGCAG” belongs 16400 fluorescence intensity (a.u.).

Source of the values: PMC7819943, “Rice protein-binding microarrays: a tool to detect cis-acting elements near promoter regions in rice”.
